Measured values from the supplement of paper PMC8183993.
Counter-ions that a name gives are not always drawn. ± gives the standard deviation of the averaged measurements. Over roughly 3,100 compounds, “mean cytoplasmic OPP incorporation (global translation) relative to DMSO” has its median near 100; the lowest 2% begin near 56. The list shows a part of the results.

Tested on: U2OS
Test: mean cytoplasmic OPP incorporation (global translation) relative to DMSO (% of DMSO); higher = more protein synthesis
Details: 10 µM; 24 h
Experimental: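 Primary image-based screen in U2OS cells: compounds at 10 uM for 24 h, then a 1 h o-propargyl-puromycin (OPP) pulse, click labelling, and high-throughput microscopy. Mean cytoplasmic OPP intensity and nuclei count were normalised to DMSO wells within each plate (DMSO = 100) and averaged over triplicate plates.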

SMILES	mean cytoplasmic OPP incorporation
C=C1CC[C@@H]2[C@](C)(CO)[C@H](O)CC[C@@]2(C)[C@@H]1C/C=C1/C(=O)OC[C@H]1O [Andrographolide]	90.5
OCc1ccccc1O[C@@H]1O[C@H](CO)[C@@H](O)[C@H](O)[C@H]1O [Salicin (Salicoside, Salicine)]	107
CN1C(CCl)Nc2cc(Cl)c(S(N)(=O)=O)cc2S1(=O)=O (stereo not given) [Methyclothiazide]	92.9
C=CC1=C(C(=O)O)N2C(=O)[C@@H](NC(=O)/C(=N\O)c3csc(N)n3)[C@H]2SC1 [Cefdinir (Omnicef)]	101
C=CC1=C(C(=O)O)N2C(=O)[C@@H](NC(=O)/C(=N\O)c3csc(N)n3)[C@H]2SC1 [Cefdinir]	113
COc1ccc(NS(=O)(=O)c2ccc(I)cc2)cc1N1CCN(C)CC1	107
CCCN(C/C=C/I)C1CCc2cccc(O)c2C1 (stereo not given) [8-Hydroxy-PIPAT oxalate]	98.5
C[C@@H]1C[C@H]2[C@@H]3CCC4=CC(=O)C=C[C@]4(C)[C@@]3(F)[C@@H](O)C[C@]2(C)[C@@]1(O)C(=O)COP(=O)(O)O [Dexamethasone Sodium Phosphate]	97
Cc1cc(C)c(S(=O)(=O)Nc2ccccc2C(F)(F)F)c(C)c1	97.3
CC(C)[C@H](CO)Nc1nc(Nc2ccc(C(=O)O)c(Cl)c2)c2ncn(C(C)C)c2n1 [Purvalanol B]	98.6
COc1cc(COc2cc(N)c(Cl)cc2C(=O)CCC2CCN(CCNS(C)(=O)=O)CC2)cc(OC)c1	110
Cn1cc(CCn2cnc(-c3cnn(C)c3)c2-c2ccc(C#N)cc2)cn1	96.3
CC(C)OC(=O)OCOP(=O)(CO[C@H](C)Cn1cnc2c(N)ncnc21)OCOC(=O)OC(C)C [Tenofovir Disoproxil Fumarate]	105
CN(c1nccc(=O)[nH]1)C1CCN(c2nc3ccccc3n2Cc2ccc(F)cc2)CC1 [Mizolastine]	103
CCS(=O)(=O)N1CCC[C@@H]2CN3CCc4cc(OC)ccc4[C@@H]3C[C@@H]21	99.9
O=C(O)c1ccccc1C(=O)Nc1ccc(S(=O)(=O)Nc2nccs2)cc1 [Phthalylsulfathiazole]	90.3
CC[C@H](CO)Nc1nc(NCc2ccccc2)c2ncn(C(C)C)c2n1 [Roscovitine (Seliciclib, CYC202)]	104
Cc1ccc(NC(=O)c2cccc(C(C)(C)C#N)c2)cc1Nc1ccc2ncn(C)c(=O)c2c1	100 ± 6.5
CC(CCCCC(=O)Nc1ccc(C(F)(F)F)cc1)NCCc1cnc[nH]1 (stereo not given) [HTMT dimaleate]	100
OCCN(CCO)c1nc(N2CCCCC2)c2nc(N(CCO)CCO)nc(N3CCCCC3)c2n1 [Dipyridamole]	108 ± 3
CC(C)(C)[N+]([O-])=Cc1ccc(S(=O)(=O)O)cc1S(=O)(=O)O	97.4
C[C@H](CCC(=O)NCCS(=O)(=O)O)[C@H]1CC[C@H]2[C@@H]3CC[C@@H]4C[C@H](O)CC[C@]4(C)[C@H]3C[C@H](O)[C@]12C [Taurodeoxycholic acid]	99.3
CN1CCN(C(c2ccccc2)c2ccccc2)CC1 [Cyclizine hydrochloride]	98.6
CC(C)OC(=O)C1=CN(C(=O)c2ccc(F)c(F)c2)CC(C)(C)c2c1[nH]c1ccccc21	99.9
COC(=O)[C@@H]1CC2=CC(=O)CC[C@]2(C)[C@@]23O[C@@H]2C[C@@]2(C)[C@@H](CC[C@@]24CCC(=O)O4)[C@H]13 [Eplerenone]	100.1 ± 0.51

SMILES	mean cytoplasmic OPP incorporation
Cc1ccc(F)c(NC(=O)Nc2ccc(-c3cccc4[nH]nc(N)c34)cc2)c1 [Linifanib (ABT-869)]	99.3
C[C@]12CC[C@@H]3c4ccc(OC(=O)c5ccccc5)cc4CC[C@H]3[C@@H]1CC[C@@H]2O [Estradiol Benzoate]	99.8
O=C(Nc1ccncc1)c1cc([N+](=O)[O-])ccc1Cl	83.9
O=C(CCCN1CCN(c2ccccn2)CC1)c1ccc(F)cc1 [Azaperone]	89
CCCCCCNC(=O)Nc1ccc(S(=O)(=O)Nc2ccc(CCNC[C@H](O)COc3ccc(O)cc3)cc2)cc1	107
C[C@H](CCC(=O)O)[C@H]1CC[C@H]2[C@@H]3[C@@H](O)C[C@@H]4C[C@H](O)CC[C@]4(C)[C@H]3CC[C@]12C [Ursodiol (Actigal Urso)]	106
C[C@H](CCC(=O)O)[C@H]1CC[C@H]2[C@@H]3[C@@H](O)C[C@@H]4C[C@H](O)CC[C@]4(C)[C@H]3CC[C@]12C [Urosiol]	96.5
C#C[C@]1(O)CC[C@H]2[C@@H]3CCC4=CCCC[C@@H]4[C@H]3CC[C@@]21C [Lynestrenol]	106
COC(=O)C1=C(C#N)NC(C)=C(C(=O)OC(C)C)C1c1cccc([N+](=O)[O-])c1 (stereo not given) [Nilvadipine]	112
N#Cc1cc2nc(O)c(O)nc2cc1[N+](=O)[O-] [CNQX disodium salt]	94.9
COC(=O)[C@H](NC(=O)c1cc(-c2ccccc2)nc2ccccc12)c1ccccc1	96.8
CNc1nc(Nc2cn(C(C)(C)C#N)nc2C)ncc1C(F)(F)F	101
CC1CC(OC(=O)c2ccccc2O)CC(C)(C)C1 (stereo not given) [Homosalate]	100
C[C@@H](CN1CCC(Cc2ccccc2)CC1)[C@@H](O)c1ccc(O)cc1 [Ro 25-6981 maleate]	107
Nc1nc(-c2ccc(Cl)c(Cl)c2)c(-c2ccncc2)s1 [CGH 2466 dihydrochloride]	100
COCCCN1CCC(NC(=O)c2cc(Cl)c(N)c3c2OCC3)CC1 [Prucalopride]	111
CCCCC/C=C/C=C1/C(=O)C=C[C@@H]1C/C=C\CCCC(=O)O [15-Deoxy-D12,14-prostaglandin J2]	90.8
NC[C@@H]1O[C@@H](O[C@H]2[C@H](O)[C@@H](O[C@H]3O[C@H](CO)[C@@H](O)[C@H](N)[C@H]3O)[C@H](N)C[C@@H]2N)[C@@H](O)[C@H](O)[C@H]1O [Kanamycin A sulfate]	105
N[C@@H](CS(=O)O)C(=O)O [L-Cysteinesulfinic acid]	99.3
N[C@@H](Cc1cc(I)c(Oc2ccc(O)c(I)c2)c(I)c1)C(=O)O [Liothyronine]	94.4
Cc1cc(CN2CCN(c3c(Br)cnc4nc(-c5ccc(N6CCN(C)CC6)cc5)[nH]c34)CC2)no1	97.5 ± 3.1
COc1ccc(C2CC(=O)c3c(O)cc(OC4OC(COC5OC(C)C(O)C(O)C5O)C(O)C(O)C4O)cc3O2)cc1OC (stereo not given) [Methyl-Hesperidin]	104
CCC(=O)NC1Cc2ccccc2C(c2ccccc2)C1 (stereo not given)	102
Cl/C(=C\n1cncn1)c1ccc(Cl)cc1Cl [Loreclezole hydrochloride]	98.7
CC1(C(=O)O)NCCc2cc(O)c(O)cc21 (stereo not given) [Salsolinol-1-carboxylic acid]	98.5

SMILES	mean cytoplasmic OPP incorporation
CN(C)C(=O)[C@H](O)[C@H](Cc1ccccc1)NC(=O)c1cc2cc(Cl)ccc2[nH]1	111
Cc1ccc(=O)n(-c2ccccc2)c1 [Pirfenidone]	100
CN1CCC(=C2c3ccccc3Sc3ccccc32)CC1 [Pimethixene maleate]	112
O=C(O)c1cc(=O)c2c(Cl)cc(Cl)cc2[nH]1 [5,7-Dichlorokynurenic acid]	93.5
Clc1ccccc1CNCC1CCC(CNCc2ccccc2Cl)CC1 (stereo not given)	112
CCCNC(=O)Nc1ccc(Oc2ncnc3cc(OC)c(OC)cc23)cc1Cl	112
CN(C)C(=O)C(=O)c1cn(C)c2cc(Cl)c(C(=O)N3CCC(Cc4ccc(F)cc4)CC3)cc12	106
O=C(NCCCCN1CCN(c2cccc(Cl)c2Cl)CC1)c1ccc2c(c1)Cc1ccccc1-2	107
C[C@@H](O[C@H]1OCCN(Cc2n[nH]c(=O)[nH]2)[C@H]1c1ccc(F)cc1)c1cc(C(F)(F)F)cc(C(F)(F)F)c1 [Aprepitant]	109
C[C@@H](O[C@H]1OCCN(Cc2n[nH]c(=O)[nH]2)[C@H]1c1ccc(F)cc1)c1cc(C(F)(F)F)cc(C(F)(F)F)c1 [Aprepitant (MK-0869)]	105
Cc1cn(-c2cc(NC(=O)c3ccc(C)c(Nc4nccc(-c5cccnc5)n4)c3)cc(C(F)(F)F)c2)cn1 [Nilotinib (AMN-107)]	118
NC(=O)c1ccc(-c2nc(-c3ccccn3)c(-c3ccc4c(c3)OCO4)[nH]2)cc1	104
CC(C)(C)c1ccc(S(=O)(=O)/C=C/C#N)cc1	82.7
CN1CCCN=C1/C=C/c1cccc(O)c1 [Oxantel pamoate]	98
CC(N)CCCC(C)(C)O (stereo not given) [Heptaminol hydrochloride]	105
CCCCC[C@H](O)/C=C/[C@@H]1[C@H]2C/C(=C/CCCC(=O)O)C[C@H]2C[C@H]1O [Carbacyclin]	101
CCN1C[C@H](C)n2c(c(O)c3c(=O)n(Cc4ccc(F)c(Cl)c4)nc(C(=O)NC)c32)C1=O	104
Cc1c(O)c(=O)n(-c2ccccc2)n1C [Antipyrine, 4-hydroxy]	103
CC(C)OC(=O)C(C)(C)Oc1ccc(C(=O)c2ccc(Cl)cc2)cc1 [Fenofibrate]	105
Cn1cc(/C=C2\C(=O)Nc3cccnc32)c2ccccc21	97.9
Cc1ccc(NC(=O)C2(c3ccc4c(c3)OC(F)(F)O4)CC2)nc1-c1cccc(C(=O)O)c1	100
Cc1cc2c(s1)Nc1ccccc1N=C2N1CCN(C)CC1 [Olanzapine]	105
CN1C(=O)C(Cc2c[nH]c3ccccc23)NC1=S (stereo not given) [Necrostatin-1]	98.9
Cc1cc(C(=O)O)sc1C(N)C(=O)O (stereo not given)	104
COc1cc2c(NC3CCN(C)CC3)nc(N3CCCN(C)CC3)nc2cc1OCCCN(C)C	112
